In PubChem BioAssay AID1745853 (National Center for Advancing Translational Sciences (NCATS), 2022):
This is one part of the list. The main result of the screen is listed elsewhere. These columns were measured beside it and carry no call.

Assays:
Test in all cases: Primary Screen for Target Class Profiling of Small Molecule Inhibitors of Methyltransferases
[1] = biological target: Glycine N-methyltransferase (Homo sapiens) (UniProt Q14749); conditions: purified enzyme, MTase-Glo SAH luminescence; measured here: GNMT inhibition; at 40 µM; stronger effect = lower value
Method in brief: (§1)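 Each enzyme was reacted with SAM and its substrate, with compounds tested once at 40 uM; SAH formed was read by MTase-Glo luminescence.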

[2] = biological target: Guanidinoacetate N-methyltransferase (Homo sapiens) (UniProt Q14353); conditions: purified enzyme, MTase-Glo SAH luminescence; measured here: GAMT inhibition; at 40 µM; stronger effect = lower value
Method in brief: as §1

[3] = biological target: Histamine N-methyltransferase (Homo sapiens) (UniProt P50135); conditions: purified enzyme, MTase-Glo SAH luminescence; measured here: HNMT inhibition; at 40 µM; stronger effect = lower value
Method in brief: as §1

[4] = biological target: Nicotinamide N-methyltransferase (Homo sapiens) (UniProt P40261); conditions: purified enzyme, MTase-Glo SAH luminescence; measured here: NNMT inhibition; at 40 µM; stronger effect = lower value
Method in brief: as §1

[5] = biological target: Phenylethanolamine N-methyltransferase (Homo sapiens) (UniProt P11086); conditions: purified enzyme, MTase-Glo SAH luminescence; measured here: PNMT inhibition; at 40 µM; stronger effect = lower value
Method in brief: as §1
On the % scale 0 is the no-effect control and ±100 the full control effect.

Row | SMILES | activity change, negative = inhibition [1] | activity change, negative = inhibition [2] | activity change, negative = inhibition [3] | activity change, negative = inhibition [4] | activity change, negative = inhibition [5]
1 | CC1(C(=O)NCC2CCCO2)Cn2c(cc3ccccc32)C(=O)N1Cc1cccc(Cl)c1 (stereo not given) | -0.307% | 2.86% | 3.04% | -2.88% | -1.01%
2 | CCOc1ccc(S(=O)(=O)NCCn2c(C(F)(F)F)nc3ccccc32)cc1 | -11% | 3.12% | -8.23% | -12.2% | -12.1%
3 | CCC(C)N(C)C(=O)c1cc2ccccc2c(-c2ccccc2Cl)n1 (stereo not given) | -0.645% | 15% | 2.22% | -18.3% | 10.8%
4 | COc1cc(C2Oc3c(OC)cc(CCCO)cc3C2CO)ccc1O (stereo not given) | 1.37% | -0.394% | 8.06% | -10.6% | -5.78%
5 | CCc1cc2c(cc3n2CC(C)(C(=O)NC2CCC(C)CC2)N(c2ccccc2C)C3=O)s1 (stereo not given) | 7.32% | 2.13% | 8.82% | 15.6% | 5.15%
6 | Cc1cnc(CCNC(=O)c2n[nH]c3ccccc23)n1C1CCC1 | -10.8% | -0.571% | -38.1% | -7.6% | -3.92%
7 | Nc1nc2ccc(Cl)cc2c2nc(-c3ccco3)nn12 | -15.9% | -4.8% | 3.29% | -13.2% | -3.08%
8 | Cc1noc(C)c1-c1cnc(Nc2ccc(F)c(Cl)c2)c2c1CCO2 | -8.45% | -12.2% | -9.91% | -16.6% | -8.82%
9 | CN(CC(=O)NCc1cccnc1)S(=O)(=O)c1ccc2[nH]c3c(c2c1)CCCC3 | -6.46% | -3.8% | -3.67% | 1.69% | -9.43%
10 | COC(=O)c1cc2n(n1)CC(C)(C(=O)NC1CCCCC1)N(c1cc(C)ccc1C)C2=O (stereo not given) | 4.49% | 4.97% | -13.4% | 10.1% | 4.73%
11 | C[C@@H]1C(=O)O[C@H]2C[C@]34[C@H]5C[C@@H](C(C)(C)C)[C@]36[C@@H](OC(=O)[C@H]6O)O[C@]4(C(=O)O5)[C@]21O | 3.66% | -4.51% | 1.52% | -14.3% | -0.197%
12 | CCCN1C(=O)c2c(C(=O)NCCc3ccc(Cl)cc3)ncn2CC1(C)C(=O)NC1CCCC1 (stereo not given) | -4.46% | 2.94% | -1.39% | -5.17% | -2.23%
13 | COc1ccc(CNc2nc3c(S(=O)(=O)c4ccc(C)c(C)c4)nnn3c3ccccc23)cc1 | -5.96% | 3.21% | -2.73% | 2.93% | -8.32%
14 | Cc1cc(CNC(=O)c2cc(C(C)C)nn2C)c2[nH]c(C)c(C)c2c1 | -8.71% | -8.96% | -2.49% | -9.68% | -8.72%
15 | COc1ccccc1CN1C(=O)c2cc3ccccc3n2CC1(C)C(=O)NC1CCCC1 (stereo not given) | -0.908% | 0.613% | 1.9% | 1.99% | 0.12%
16 | COC1C(=O)N(C2CCN(C(=O)c3cc(C)nn3C)CC2)C12CCOCC2 (stereo not given) | -0.893% | -0.833% | 0.421% | 4.44% | 5.94%
17 | C#CCNC(=O)CC[C@@H]1CNC(=O)[C@@H]2C[C@H](NC(=O)c3ccco3)CN12 | -8.81% | -8.41% | -4.42% | -12.5% | -18.6%
18 | CCCN(C)C(=O)CC1COCCN1C(=O)Nc1cccc(SC)c1 (stereo not given) | -7.46% | -10.2% | -4.04% | -15.8% | -13.3%
19 | Cn1nccc1CN1CCC2(C1)C(=O)Nc1ccccc12 (stereo not given) | -13.6% | -3.47% | -0.138% | -13.1% | 10.1%
20 | O=C(NCc1ccccc1F)C1CC(c2ccccc2)CN(C(=O)COc2ccccc2)C1 (stereo not given) | -4.39% | -1.15% | -0.659% | -1.88% | -16.2%

Row | SMILES | activity change, negative = inhibition [1] | activity change, negative = inhibition [2] | activity change, negative = inhibition [3] | activity change, negative = inhibition [4] | activity change, negative = inhibition [5]
21 | Cn1c(=O)n(C)c2cc(S(=O)(=O)NC3CCCCC3)ccc21 | -1.93% | 0% | 12% | 16.5% | 3.61%
22 | C[S+](=O)([O-])NC1CCCN(Cc2ccc(-c3cncnc3)cc2)C1 (stereo not given) | -0.29% | -0.608% | 1.44% | -5.63% | -0.143%
23 | COC(=O)c1ncn2c1C(=O)N(Cc1ccc(OC)c(OC)c1)C(C)(C(=O)NC1CCCCC1)C2 (stereo not given) | -5% | 6.59% | -2.59% | 0.54% | 3.46%
24 | CCOC(=O)Cn1c(=O)oc2cc(S(=O)(=O)NCCc3ccc(Cl)cc3)ccc21 | -2.4% | 7.09% | 3.02% | 6.72% | -3.87%
25 | CCn1ncnc1C1CC(=O)Nc2cc(OC)c(NS(C)(=O)=O)cc21 (stereo not given) | 1.6% | 2.85% | 1.27% | 6.37% | 4.77%
26 | CN(C(=O)CCc1nc2ccccc2[nH]1)C1CCc2nn(C)c(=O)n2CC1 (stereo not given) | -0.508% | -1.47% | 0.301% | -1.03% | -0.55%
27 | CCCC1c2ccc(C)n2CCN1C(=O)Nc1ccc(Cl)cc1 (stereo not given) | 3.04% | 4.15% | -1.26% | 8.71% | 0.282%
28 | CCCn1c(=O)c2ccc(C(=O)NC(C)C)cc2n2c(=O)n(CC(=O)N(C)c3ccc(F)cc3)nc12 | -0.009% | -0.526% | -1.79% | -9.92% | -7.03%
29 | Cc1c(CN2CC[C@H]3CC[C@@H](C2)N3)c(=O)n(-c2ccccc2)n1C | -0.901% | -0.354% | -3.94% | 0.822% | 0.844%
30 | COc1cccc(CNC(=O)Cn2ccc3cc(S(=O)(=O)N4CCCC4)ccc32)c1 | -0.698% | 1.71% | -1.57% | -15.6% | -2.55%
31 | Cc1ccc(NC(=O)COc2ccc(-c3nnc4n3CCCC4)cc2)cc1C | -4.83% | -5.76% | -5.39% | -13.3% | -5.65%
32 | O=C(NCCc1ccc(Cl)cc1)C1CN(C2CCCC2)C(=O)N1 (stereo not given) | -7.92% | -7.96% | -3.92% | -24.2% | -8.7%
33 | CCCn1c(=O)c2ccc(C(=O)NC3CCCC3)cc2n2c(=O)n(CC(=O)Nc3ccccc3C)nc12 | 3.73% | 0% | 6.46% | 5.73% | 3.76%
34 | CSc1ccc(CCNC(=O)c2cc3n(n2)CCCN(Cc2ccc(C)cc2)C3=O)cc1 | -11.2% | 3.15% | -6.69% | -9.16% | -1.12%
35 | CCOC(=O)c1cc2n(n1)CC(C)(C(=O)NCc1ccc(C)cc1)N(Cc1ccccc1Cl)C2=O (stereo not given) | 7.61% | 2.45% | 12% | 3.91% | 4%
36 | COCCN1CCC2(CCC1=O)CN(c1ccc(C#N)cn1)CCN2C (stereo not given) | -6.28% | -3.67% | -2.08% | -9.42% | 10%
37 | CC1=CC(=O)CC2C1(O)CCC(C)C21CC(c2ccoc2)OC1=O (stereo not given) | 0% | -3.96% | 6.93% | -19.3% | -13.5%
38 | COc1ccc(N2C(=O)c3cc(-c4cccs4)nn3CC2(C)C(=O)NC2CCCCCC2)cc1 (stereo not given) | 1.77% | 0% | 8.6% | 7.89% | 3.82%
39 | Cn1c2c(c3ccccc31)C(C(=O)NCc1ccccc1)N(Cc1ccccc1Cl)C(=O)CS2 (stereo not given) | 13.6% | 1.65% | 8.43% | 6.98% | 2.49%
40 | CC1=NOC2(CCN(CC3CC3)CC2)C1 | 0.327% | 1.67% | 3.47% | -4.92% | 14.8%

Row | SMILES | activity change, negative = inhibition [1] | activity change, negative = inhibition [2] | activity change, negative = inhibition [3] | activity change, negative = inhibition [4] | activity change, negative = inhibition [5]
41 | CC(=O)O[C@H]1[C@H](OC(=O)C(C)C)[C@]2(C)OC3(CC[C@]2(C)[C@H]2CCC[C@]4(CO4)[C@]12C)COC(=O)C3 (stereo not given in full) | 0% | -5.3% | 0.453% | -19% | 0.705%
42 | CCOCCCNC(=O)c1ccc2c(=O)nc3c(-c4cccc(F)c4)n[nH]n3c2c1 | -4.8% | -3.08% | 0.438% | -0.485% | -3.49%
43 | CC(C)S(=O)(=O)Nc1ccc(F)c(C(=O)c2c[nH]c3ncc(-c4cccnc4)cc23)c1F | -17.8% | -4.07% | 1.43% | -32% | -14.6%
44 | O=[S+]([O-])(Nc1cccnc1)c1ccc2c(c1)OCCN(Cc1cncnc1)C2 | -3.07% | 0.495% | 1.47% | -0.11% | -0.079%
45 | O=c1c2ccccc2n2c(-c3ccc(F)c(F)c3)nnc2n1CCc1ccccc1 | -4.33% | 2.46% | -2.12% | -4.23% | -7.62%
46 | Cc1cc2c(cc3n2CC(C)(C(=O)NC2CCCCCC2)N(Cc2ccccc2)C3=O)o1 (stereo not given) | -3.35% | 2.87% | 1.72% | -3.64% | -1.93%
47 | Cn1c(=O)c2ccc(C(=O)NC3CCCCC3)cc2n2c(=O)n(Cc3ccc(F)cc3)nc12 | 3.64% | 0% | 9.9% | 0.521% | 1.35%
48 | COC(=O)c1ccc2nc(CO[C@H]3CN(Cc4cccc(C#N)c4)C[C@H]3F)[nH]c2c1 | -8.75% | -5.64% | -25.5% | -13.2% | -6.26%
49 | O=C(NCc1nnc2cc(-c3nc(C4CC4)no3)ccn12)c1nccc2ccccc12 | -4.5% | -6.14% | -2.99% | -8.14% | -0.912%
50 | O=C(CSc1nnc2n(Cc3ccc(F)cc3)c(=O)c3ccccc3n12)Nc1ccc(Cl)cc1 | 3.31% | 0.769% | 8.72% | 1.62% | 2.44%
51 | Cn1cnc(S(=O)(=O)N2CCCN(C(=O)c3nccn3C)CCNC(=O)CC2c2ccccc2)c1 (stereo not given) | -1.39% | 2.23% | 1.56% | -1.28% | 2.08%
52 | Cn1c(=O)c2ccc(C(=O)NC3CCCCC3)cc2n2c(SCC(=O)Nc3ccccc3F)nnc12 | -3.48% | 0% | -2.5% | -1.5% | -0.573%
53 | COc1ccc(-c2cc3n(n2)CC(C)(C(=O)NCc2ccccc2OC)N(CCc2cccs2)C3=O)cc1 (stereo not given) | 0.558% | 5.51% | -3.88% | 3.29% | -2.42%
54 | CCOc1ccc(CNC(=O)CCn2ccc3cc(S(=O)(=O)N4CCCCC4)ccc32)cc1 | 6.51% | 0.735% | 3.61% | 2.36% | 2.3%
55 | NC(=O)COc1ccc(C(=O)N[C@@H]2CN(Cc3ccccn3)CCC[C@H]2O)cc1 | -9.61% | -7.06% | -14.7% | -10.5% | -9.22%
56 | O=C(Cn1cc(C(F)(F)F)ccc1=O)N1CCC2(CCCNC2=O)C1 (stereo not given) | -0.48% | -0.232% | 1.64% | 1.18% | 2.07%
57 | CC(=O)c1ccc(O[C@@H]2O[C@H](CO)[C@@H](O)[C@H](O)[C@H]2O)cc1 | 3.45% | 0.392% | 4.45% | -9.31% | -8.08%
58 | Cc1noc(C)c1-c1cc(-c2ccc(CN(C)C)cc2)cn2cncc12 | -22.3% | -3.53% | -74.2% | -9.36% | -22.7%
59 | CNC(=O)c1cc(C2CC2)nc2onc(C3CCCN(C(=O)c4ccccc4OC)C3)c12 (stereo not given) | -2.03% | 0.768% | 1.25% | -6.55% | 0.105%
60 | CC(C)N1C[C@@H]2OCC(=O)N(Cc3ccccc3)[C@@H]2C1 | -5.92% | -5.87% | -4.93% | -5.59% | -1.39%
